Measurements taken from the RNAGym collection of RNA variant scans (doi:10.7554/elife.90254).
The source gives no read counts; variants with many changes may rest on few reads.

B1: LINE1-full (parent)
chain: UACGUAGGUGGUUUUCCCCUGAUAGUGCUAAGGGGGCCUGGAAGUUUGGACUGGGCAGAGCUCAACACAGCGUGGCAAAGUGGCUGUGGCUAGACUGCCUCUCUGGAUUCCUCGUCACUCAGCAGGGCAUCUCUGAGAGAAAUGCC

Variants of: B1
Experiment: self-cleavage, relative activity (ratio to wild type); higher = more cleavage; in vitro, sequencing; the parent is a self-cleaving ribozyme

Variant	self-cleavage
UACGUAGGAGGUUUUCCCCUGAUAGUGCUAAGGGGGCCUGGAAGUUUGGACUGGGCAGAGCUCAGCACAGCGUGGCAAAGUGGCUGUGGCUAGACUGCCUCUCUGGAUUCCUCGUCACUCAGCAGGGCAUCUCUGAGAGAAGUGCC	0
UACGUAGGUGGUUUUCCCCUGAUUGUGCUAAGGGGGCCUGGAAGUCUGGACUGGGCAGAGCUCAACACAGCGUGGCAAAGUGGCCGUGGCUAGACUGCCUCUCUGGAUUCCUCGUCACCCAGCAGGGCAUCUCUGGGAGAAAUGCC	0.57
UACGUAGGUGGUUUUCCCCUGAUAGUGCUAAGGGGGCCUGGAAGUUUGGACUGGGCAGAGCUCAACACAGCGUGGCAAAGUGGCUGUGGCUUGACCGCCUCUCUGGAUCCCUCGUCACUCAGCAGGGCAUCUCUGAGAGAAAUGCC	0
UACGUAGGUGGUUUUCCCCUGAUAGUGCUAAGGGGGCCUGGAAGUUUGGACUGGGCAGGGCUCAACACGGCGUGGCAAAGUGGCUGUGGCUAGACUGCCUCUCUGGAUUCCUCGUCACUCAGCAGGGCUUCUCUGAGAGAAAUGCC	0.08
UACGUAGGUGGUCUUCCCCUGAUAGUGCUAAGGGGGCCUGGAAGUUUGGACUGGGCAGAGCUCAACACAGCGAGGCAAAGUGGCUGUGGCUAGACUGCUUCUCCGGAUUCCUCGUCACUCAGCAGGGCAUCUCUGAGAGAAAUGCC	1.73
UACGUAGGUGGUUCUCCCCUGAUAGUGCUAAGGGGGCCUGGAAGUUUGGACUGGGCAGAGCUCAACACAGCAUGGCAAAGUGGCUGUGGCUAGACUGCCUCUCUGGAUUCCUCGUCGCUCAGCAGGGCAUCUCUGAGAGAGAUGCC	1.18
UACGUAGGUGGUUUUCCCCUGAUAGUGCUAAGGGGGCCUGGAAGUUUGGACUGGGCAGAGCUCAACACAGCGUGGCAAAGUGGCUGUGGCUAGACUGCCUCUCUGGAUUCCUCGUCACUCAGCAGGGCAACUCUGGGGGAGAUGCC	0
UACGUAGGUGGUUUUUCCCUGAUAGUGCUAGGAGGGCCUGGAAGCUUGGACUGGGCAGAGCUCAACACAGCGUGGCAAAGUGGCUGUGGCUAGUUUGCCCCUCUGGAUUCCUCGUCACUCGGCAGGGCAUCUCUGAGAGAAAUGCC	0.11
UACGUAGGUGGUUUUCCCCUGAUAGUGCUGAGGGGGCCUGGAAGUUUGGACUGGGCAGAGCUCAACACAGCGUGGCAAAGUGGCAGCGGCUAGACUGCCUCUCUGGAUUCCUCGUCACUCAGCAGGGCAUCUCUGAGAGAAAUGCC	0.27
UACGUAGGUGGUUUUCCCCUGAUAGUGCUAAGGGGGCCUGGAAGUUUGGACUGGGCAGAGCCCAACACAGUGAGGCAGAGUGGCUGUGGCUAGACUGCCUCUCUGGAUCCCUCGUCACUCAGCAGGGCAUCUCUGAGAGAAAUGCC	0.05
UACGUAGGUGGUUUUCCCCUGAUAGUGCUAAGGGGGCCUGGAAGUUCGGACUGGGCAGAGCUCAACACUGCGUGGCUAAGUGGCUGUGGCUAGACUGCCUCUCUGGAUUCCUCGUCACUCAGCAGGGCAUCUCUGAGAGAAGUGCC	0.08
UACGUAGGUGGUAUUCCCCUGAUAGUGCUAAGGGGGCCUGGAAGUUUGGACUGGGCAGAGCUUAACACAGCGUGGCAAAGUGGCAGUGGCUAGACUGCCUCUCUGGAUUCCUCGUCACUCAGCAGGGCAUCCCUGAGUGAAAUGCC	0.03
UACGUAGGUGGUUUUCCCCUGAUAGUGCUAAGGGGGCCUGGAGGUUAGGACUGGGCUGAGCUCAACACAGCGUGGCAAAGUGGCUGUGGCUAGACUGCCUCUCUGGAUUCCUCGUCACUCAGCAGGGCAUCUCUGAGAGAAAUGCC	0.12
UACGUAGGUGGCUUUCCCCUGAUAGUGCUAAGGGGGCCUGGAAGUUUGGACUGGGCAGAGCUCAACACAGCGUGGCAAAGUGGCUGUGGCUAGACUGCCUCUCUGGAUUCUUCGUCACUCAGCAGGGCAUCCCUGAGAGAAAUGCC	2
UACGUAGGUGGUUUUCCCCUGAUAGUGCUAAGGGGGCCUGGGAGUUUGGACUGGGCUGAGCUCAGCACAGCGUGGCAAAGUGGCUGUGGCUAGACUGCCUCUCUGGAUUCCUCGUCACUCAGCAGGGCAACUCUGAGAGAAAUGCC	0
UACGUAGGUGGCUUUCCCCUGAUAGUGCUAAGGGGGCCUGGAAGUUUGGACUGGGCAGGGCUCAACACAGCGUGGCAAAGUGGCUGUGGCUAGACUGCCUCUCUGGGUUCCUUGUCACUCAGCAGGGCAUCCCUGAGAGAAAUGCC	0
UACGUAGGUGGUUCUCCCCCGAUAGUGCUAAGGGGGCCUGGAAGUUUGGACUGGGCAGAGCUCAACACAGCGUGGCAAAGUGGCUGUGGCUAGACUGCCUCUCUGGAUUCCUCGUCACUCAGCAGGGCAUCUCUGAGAGAAGUGCC	1.74
CACGUAGGUGGUUUUCCCCUGAUAGUGCUGAGGGGGCCUGGAAGUUUGGACUGGGCAGAGCUCAACACAGCGUGGCAAAGUGGCUGUGGCUAUACUGCCUCUCUGGAUUCCUCGUCACUCAGCAGGGCAUCUCUGAGAGAAAUGCC	0.08
UACGUAGGUGGUCUUCCCCUGAUAGUGCUAAGGGGGCCUGGAAGUUAGGACAGGGCAGAGCUCAACACAGCGUGGCAAAGUGGCUGUGGCUAGACUGCCUCUCUGGAUUCCUCGUCACUCAGCAGGGCAUCUCUGGGAGAGAUGCC	1.29
UACGUAGGUGGUUUUCCCCUGAUAGUGCUAAGGGGGCCUGGAAGUUUGGACUGGGCAGAGCUCAACACAGCGUGGCAAAGUGGCUGUGGCUAGACUGCCUCUCUGGAUUCCCCGUCGCUCAGCAGGGCAUCUCUGAGAGGAAUGCC	0
